Test results: PubChem BioAssay AID2451 (National Center for Advancing Translational Sciences (NCATS), 2010)
The whole screen tested about 290,000 compounds, of which about 2,100 (0.72%) were called active. This list was built around the results that the source calls inconclusive (neither active nor inactive); the mix of calls is not that of the screen. Calls follow the shape of the dose curve; as a rule, active = well fitted inhibition curve with a large enough effect; inconclusive = small, poorly fitted or top-dose-only effect, or effect the other way; inactive = flat fitted curve, though single readings scatter. Potencies of inconclusive entries are doubtful fits and often do not repeat.

Biological target: Fructose-bisphosphate aldolase (Giardia intestinalis (strain ATCC 50803 / WB clone C6)) (UniProt A8B2U2)
Sequence of UniProt A8B2U2 (A8B2U2 whole entry, looked up): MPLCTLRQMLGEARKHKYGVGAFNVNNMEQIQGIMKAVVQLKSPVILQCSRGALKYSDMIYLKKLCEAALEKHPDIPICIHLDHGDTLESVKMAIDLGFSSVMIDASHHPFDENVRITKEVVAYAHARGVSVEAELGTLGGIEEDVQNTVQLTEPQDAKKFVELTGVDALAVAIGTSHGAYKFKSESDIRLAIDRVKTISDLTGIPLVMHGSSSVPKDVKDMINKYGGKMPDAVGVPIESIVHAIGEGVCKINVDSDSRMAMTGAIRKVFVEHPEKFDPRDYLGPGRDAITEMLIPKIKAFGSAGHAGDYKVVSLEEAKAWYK
Assay: qHTS Assay for Inhibitors of Fructose-1,6-bisphosphate Aldolase from Giardia Lamblia; also: nearly all actives have a fitted effect of over 55% in size
Settings: purified Giardia FBPA; series mostly up to 59.6 µM
Summary of the method: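 40 nM FBPA preincubated 10 min at RT with compound (up to 57.5 uM final), then substrate plus GAPDH/TPI/NAD/arsenate coupling and diaphorase/resazurin added. Fluorescence read after 20 min at RT, 525/598 nm.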
Potency is read from the fitted curve at half-maximal effect; tags tell the direction and shape of the fitted curve.

Row | SMILES | Potency
1 | O=C(O)c1ccccc1-c1ccc(C=C2C(=O)N(c3ccccc3)C(=S)N(c3ccccc3)C2=O)o1 | inactive
2 | COc1ccc(N(CC(=O)Nc2ccccc2C)S(=O)(=O)c2c(C)[nH]c(=O)[nH]c2=O)cc1 | inactive
3 | Cc1cc(C)n(CCSCC(=O)O)n1 | inconclusive: 15.8 µM [inhibitor, partial curve]
4 | Cc1ccc(/C=C/C(=O)c2ccccc(=O)c2O)c(C)c1 | inconclusive: 6.29 µM [inhibitor, single point]
5 | COc1cc(CN2CCC(C(=O)NC3CCCC3)CC2)cc(OC)c1O | active: 17.7 µM
6 | CC(NCC1(N2CCOCC2)CCCCC1)C(=O)Nc1ccc(Cl)cc1Cl (stereo not given) | inconclusive: 19.9 µM [inhibitor, partial curve, poor fit]
7 | NC(=O)c1ccccc1NC(=O)CN1CCN(Cc2ccccc2)CC1 | inactive
8 | CC1=CC(=O)[C@@H]2C[C@H]1C2(C)C | inactive
9 | COC(=O)c1ccc(NC(=O)CN2CCN(CC#N)CC2)cc1 | active: 25.1 µM
10 | COc1ccc(CNc2ncnc3sccc23)cc1OC | inactive
11 | COC(=O)CCCC1=CC2=C(c3ccccc3)C(=O)C(C)(OC(=O)C3CCCC3)C(=O)C2=CN1CCc1ccccn1 (stereo not given) | inconclusive: 3.15 µM [inhibitor, full curve, poor fit]
12 | N#CC(C#N)=C1C(=O)N(CCN2CCOCC2)c2ccccc21 | inconclusive: 3.15 µM [inhibitor, full curve]
13 | CC(c1n[nH]c(=S)n1Cc1ccccc1)N(C)C (stereo not given) | inconclusive: 12.6 µM [inhibitor, partial curve]
14 | Nc1c(C(=O)c2ccc(Cl)cc2)sc2nc3c(cc12)CCC3 | inactive
15 | O=C(Nc1cccc2ccccc12)N1CCN(c2ncccn2)CC1 | inconclusive: 22.3 µM [inhibitor, single point]
16 | Cc1cccc(/C=N/n2c(COc3ccccc3)n[nH]c2=S)c1 | inconclusive: 15.8 µM [activator, partial curve]
17 | CCCSC1=N/C(=C\C=C\c2ccco2)C(=O)S1 | inconclusive: 22.4 µM [inhibitor, single point]
18 | Cc1ccc(N2C(S)=C(C#N)C(=O)NC2c2ccco2)cc1 (stereo not given) | inconclusive: 15.8 µM [inhibitor, single point]
19 | COc1ccc(C(NC(C)=O)c2ccc3cccnc3c2O)c(OC)c1 (stereo not given) | inconclusive: 3.15 µM [inhibitor, full curve, poor fit]
20 | O=C(Nc1cccnc1Cl)c1cc(-c2ccc(Br)cc2)on1 | inactive
21 | Oc1ccccc1-c1nc(NCc2ccccc2)c2ccccc2n1 | inactive
22 | CN(C)N1C(N)=C(C#N)C(c2ccc3c(c2)OCO3)C2=C1CCCC2=O (stereo not given) | inconclusive: 17.8 µM [inhibitor, partial curve]
23 | CCOc1ccc(C2C(C#N)=C(N)SC(N)=C2C#N)cc1OC | inconclusive: 3.54 µM [inhibitor, full curve]
24 | Cc1nc(C)c(/C(O)=C/c2nc3ccc([N+](=O)[O-])cc3oc2=O)o1 | active: 12.6 µM

Row | SMILES | Potency
25 | O=c1c(O)c(-c2ccc(O)c(O)c2)oc2cc(O)cc(O)c12 | inconclusive: 15.8 µM [inhibitor, partial curve]
26 | O=C(NCc1ccc(C(F)(F)F)cc1)C12CN(Cc3ccccc3)CC1C(c1cccc([N+](=O)[O-])c1)=NO2 (stereo not given) | inactive
27 | COC(=O)CSc1nnc(CNc2ccc(OC)cc2)n1C | inconclusive: 25.1 µM [inhibitor, partial curve, poor fit]
28 | COc1ccc(C(=O)Nc2nnc(-c3ccccc3)o2)cc1OC | inconclusive: 22.3 µM [activator, partial curve]
29 | CC(C)(C)c1ccc(OCCCNC2CCCC2)cc1 | inconclusive: 15.8 µM [inhibitor, partial curve]
30 | O=C(CC1Sc2ncnn2C1=O)Nc1ccccc1 (stereo not given) | inconclusive: 14.1 µM [inhibitor, partial curve]
31 | COc1ccc(NC(=O)COC(=O)c2ccc([N+](=O)[O-])o2)cc1Cl | inconclusive: 19.9 µM [inhibitor, partial curve]
32 | Cc1ccc(N2CCN(S(=O)(=O)c3nnc(NC(=O)c4ccccc4)s3)CC2)cc1 | inconclusive: 35.5 µM [inhibitor, partial curve]
33 | CN(CC1CCOCC1)C(=O)CC1C(=O)NCCN1Cc1ccccc1F (stereo not given) | inconclusive: 28.2 µM [inhibitor, partial curve]
34 | Cc1nn(-c2ccccc2)c2c1C1(C(=O)N(C(C)C)c3ccccc31)C(C#N)=C(N)O2 (stereo not given) | inconclusive: 5 µM [inhibitor, full curve]
35 | O=C(Nc1ccc(Cl)cc1)C1CC2CCCC(C1)C2=O (stereo not given) | inactive
36 | Cc1ccc(NC(=O)CN2CCC(Cc3ccccc3)CC2)cc1S(=O)(=O)N(C)C | inconclusive: 17.7 µM [inhibitor, partial curve]
37 | COC(=O)c1ccc(OCc2nn[nH]n2)cc1 | active: 31.6 µM
38 | Cn1c(CCNC(=O)c2ccccc2F)nnc1SCC(=O)Nc1nncs1 | inconclusive: 15.8 µM [inhibitor, partial curve]
39 | CC1(C)SC(=S)N(/N=C/c2ccccc2)C1N(O)C(=O)Nc1ccc([N+](=O)[O-])cc1 (stereo not given) | inconclusive: 8.91 µM [inhibitor, partial curve]
40 | O=C(Nc1ccc2c(c1)OCO2)[C@@H]1[C@@H]2C(=O)N(C3CCCCC3)C(=O)[C@@H]2C2c3ccccc3C=CN21 (stereo not given in full) | inconclusive: 6.29 µM [inhibitor, single point]
41 | COc1ccc(NCc2cc3cc(OC)ccc3[nH]c2=O)cc1 | inconclusive: 2.82 µM [inhibitor, full curve]
42 | C=CCC1C(=O)NC(=S)NC1=O | inconclusive: 22.3 µM [inhibitor, single point]
43 | Cc1ccc(C)n1-c1ccc(N2CCOCC2)nc1 | inconclusive: 14.1 µM [inhibitor, partial curve]
44 | CNc1nc(-c2ccccc2)[n+](-c2ccc(C)cc2)s1 | active: 12.6 µM
45 | c1csc(-c2nc3nc4ccccc4nc3n2Cc2ccc3c(c2)OCO3)c1 | inconclusive: 17.7 µM [inhibitor, single point]
46 | CNC(=S)N(C)CCc1cc2c(c(OC)c1C=C1C(=O)NC(=O)NC1=O)OCO2 | active: 7.06 µM
47 | Cc1ccc(-c2cc3cccc[n+]3cc2-c2ccc(C)cc2)cc1 | inactive
48 | CCCCCc1ccc(-c2ccc(C(=O)O)cc2)nc1 | inconclusive: 22.3 µM [activator, partial curve]

Row | SMILES | Potency
49 | O=C(O)c1cc(-c2ccc(/C=C3\NC(=O)N(c4ccccc4)C3=O)o2)ccc1Cl | inconclusive: 17.7 µM [inhibitor, partial curve]
50 | CCOC(=O)c1c(NC(=O)CSc2cccc[n+]2[O-])sc(C(=O)Nc2ccccc2)c1C | inconclusive: 28.1 µM [inhibitor, single point]
51 | Cc1cccc(C(=O)NCc2nnc(SCC(=O)NC3=NCCS3)n2C)c1 | inactive
52 | Cc1cc(C)c(S(=O)(=O)Nc2cccc3nsnc23)c(C)c1 | inconclusive: 15.8 µM [inhibitor, single point]
53 | COC(=O)CCC(=O)OC1(C)C(=O)C2=CN(Cc3ccccc3)C(c3ccc(OC)cc3)=CC2=C(Br)C1=O (stereo not given) | inconclusive: 1.99 µM [inhibitor, partial curve]
54 | O=C(Nc1nnc(S(=O)(=O)N2CCOCC2)s1)c1ccc(Cl)cc1 | inconclusive: 17.8 µM [inhibitor, partial curve]
55 | O=C(CSCCSCC(=O)c1ccco1)c1ccco1 | inconclusive: 17.7 µM [inhibitor, single point]
56 | COc1ccc(O)c(/C=N\NC(=O)CCn2nnc3ccccc32)c1 | inconclusive: 6.29 µM [inhibitor, full curve, poor fit]
57 | O=C(N=C1SC2CS(=O)(=O)CC2N1c1ccc(Cl)cc1Cl)C1CC1 (stereo not given) | inactive
58 | Cn1nnc2cc(NC(=O)N3CC4(C)CC3CC(C)(C)C4)ccc21 (stereo not given) | inconclusive: 19.9 µM [inhibitor, partial curve]
59 | O=C(Nc1ccc(S(=O)(=O)Nc2ncccn2)cc1)C(F)(F)F | inconclusive: 12.6 µM [inhibitor, partial curve]
60 | COc1ccc(CNC(=O)CSc2nc3ccc(C)cc3[nH]2)cc1 | inactive
61 | O=[N+]([O-])c1cccc(S(=O)(=O)N/N=C\c2ccc3c(c2)OCO3)c1 | inconclusive: 22.4 µM [inhibitor, single point]
62 | CCSc1ccccc1C(=O)N1CCN(c2ccc([N+](=O)[O-])cc2)CC1 | inactive
63 | COc1ccc(/C=C2\SC(c3ccc(C)cc3)=NC2=O)cc1OC | inconclusive: 17.8 µM [inhibitor, partial curve]
64 | O=C(CNCc1cccs1)Nc1ccc(S(=O)(=O)N2CCCCC2)cc1 | inconclusive: 17.7 µM [inhibitor, partial curve]
65 | Cc1ccc(S(=O)(=O)/C(C#N)=C/c2ccccc2OCc2ccccc2)cc1 | inactive
66 | CC[n+]1c(/C=C/N(C)c2ccccc2)oc2ccc(F)cc21 | inconclusive: 7.06 µM [inhibitor, full curve]
67 | Cc1ccc(C)c(C(=O)CSc2nc(N)cc(=O)[nH]2)c1 | inactive
68 | CC(C)c1cc[n+](-c2nc([O-])sc2C=O)cc1 | inconclusive: 10 µM [inhibitor, partial curve]
69 | O=C(C1=NN[C@@H]2C(=O)N(c3cccc(F)c3)C(=O)[C@H]12)c1cnccn1 | active: 15.8 µM
70 | C=CCNc1nc2ccccc2nc1NS(=O)(=O)c1ccc(F)cc1 | inconclusive: 39.8 µM [inhibitor, single point]
